Test results reported in the supplement of paper PMC12217912.
The other results are listed elsewhere or left out. Sequences were assembled here from the parent chain. Values near 0.05 are background.

B1: TEV protease; numbered along this chain (parent)
chain: MGESLFKGPRDYNPISSSICHLTNESDGHTTSLYGIGFGPFIITNKHLFRRNNGTLVVQSLHGVFKVKDTTTLQQHLVDGRDMIIIRMPKDFPPFPQKLKFREPQREERICLVTTNFQTKSMSSMVSDTSCTFPSGDGIFWKHWIQTKDGQCGSPLVSTRDGFIVGIHSASNFTNTNNYFTSVPKNFMELLTNQEAQQWVSGWRLNADSVLWGGHKVFMVKPEEPFQPVKEATQL

Variants of: B1
Assay: raw area under fraction-flipped curve 0-4 h after induction (AUC4h, not background-subtracted), DNA-recorder readout of cleavage of the substrate (dimensionless); higher = more cleavage of the substrate by the protease variant
Conditions: temperature: 34 °C; time window: 0-4 h after rhamnose induction
Description: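 In vivo DNA recorder in E. coli TOP10(DE3) ΔrhaA at 34 °C. Each TEVp single-site mutant (parent TEVp 0) is paired with a single-site variant of the 7-mer TEVs (canonical ENLYFQ|S). The substrate sits between flexible linkers in a Bxb1-sfGFP-TEVs-SsrA fusion, so cleavage stabilises Bxb1 and speeds flipping of a recombination array, read by NGS. The value is the raw area under the fraction-flipped curve over 0-4 h after rhamnose induction (AUC4h), with ≥20 reads per time point. It is not background-subtracted; inactive controls average about 0.047.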
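Also: Bxb1 expression induced with 0.2% (w/v) L-rhamnose at OD600 near 0.5, cultures sampled hourly, flipped fraction per protease–substrate barcode pair counted by paired-end Illumina sequencing.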

Row | Variant | area with substrate ENLYFAS | area with substrate ENLYFDS | area with substrate ENLYFES | area with substrate ENLYFHS | area with substrate ENLYFIS | area with substrate ENLYFKS | area with substrate ENLYFNS | area with substrate ENLYFPS | area with substrate ENLYFVS | area with substrate ENLYFYS | area with substrate ENLYFFS | area with substrate ENLYFLS | area with substrate ENLYFMS | area with substrate ENLYFCS | area with substrate ENLYFRS | area with substrate ENLYFTS | area with substrate ENLYFWS | area with substrate ENLYFSS | area with substrate ENLYFGS
1 | Q194Y | 0.0665 | 0.0531 | 0.0668 | 0.0684 | 0.0574 | 0.0642 | 0.0584 | 0.0645 | 0.0543 | 0.0603 |  |  |  |  |  |  |  |  | 
2 | E231F | 0.0573 |  | 0.0699 | 0.0606 | 0.0639 | 0.0661 | 0.0723 | 0.056 |  |  | 0.0643 | 0.0503 | 0.0554 |  |  |  |  |  | 
3 | R204S | 0.0544 |  |  | 0.0687 | 0.0565 | 0.0493 | 0.0646 | 0.0571 | 0.0626 | 0.0756 | 0.0654 |  | 0.0675 | 0.065 | 0.0619 | 0.073 | 0.059 |  | 
4 | N172T | 0.0593 | 0.0488 | 0.0597 |  |  | 0.0547 | 0.0591 |  |  |  |  |  | 0.0512 |  | 0.0467 |  |  |  | 
5 | N172G | 0.0482 |  | 0.0462 |  | 0.0667 | 0.0658 |  |  | 0.0568 |  |  |  | 0.054 |  | 0.0641 | 0.0531 |  | 0.0607 | 
6 | N172I | 0.0484 |  | 0.0582 | 0.0554 | 0.0585 |  |  | 0.0609 |  |  | 0.0703 | 0.0659 | 0.0472 |  | 0.0556 | 0.0613 | 0.0592 |  | 0.0587
7 | Q234Y | 0.0581 |  | 0.0602 |  | 0.0595 | 0.0576 | 0.071 | 0.0545 | 0.0543 | 0.0538 | 0.0695 |  | 0.0705 |  | 0.0572 | 0.064 |  | 0.0542 | 
8 | W212L | 0.0587 | 0.03 | 0.0652 | 0.0503 | 0.0454 | 0.0625 | 0.0642 | 0.0581 |  |  | 0.0513 | 0.0581 | 0.065 | 0.0507 | 0.0606 | 0.0642 |  | 0.061 | 
9 | W212P | 0.0433 |  |  |  |  |  | 0.0618 |  |  |  | 0.0684 | 0.0536 | 0.075 | 0.0465 |  | 0.0552 | 0.0547 | 0.0371 | 
10 | V217K | 0.0666 |  | 0.064 |  | 0.0661 | 0.0529 | 0.0733 | 0.0627 |  |  | 0.0755 |  |  |  | 0.0579 |  | 0.0492 | 0.07 | 0.0775
11 | V217S | 0.0569 |  |  |  | 0.0616 | 0.0601 | 0.0604 | 0.0597 | 0.0469 |  | 0.0488 | 0.068 | 0.0644 | 0.0742 | 0.0583 |  |  |  | 0.0511
12 | V217F | 0.0655 |  | 0.0561 |  | 0.0451 | 0.0766 |  | 0.0705 | 0.0688 | 0.0561 | 0.0566 | 0.0669 | 0.0544 | 0.0589 |  | 0.0385 | 0.0437 |  | 
13 | V217T | 0.0596 | 0.0572 | 0.0738 |  | 0.0616 |  |  | 0.0501 | 0.0552 |  | 0.0573 |  | 0.0449 | 0.0473 |  |  |  |  | 
14 | K230Y | 0.0463 | 0.0563 |  | 0.0629 | 0.0572 | 0.0554 |  | 0.0651 | 0.0546 |  | 0.0638 | 0.0722 | 0.0502 |  |  | 0.0576 | 0.0465 | 0.0657 | 
15 | E189F | 0.0553 |  |  |  | 0.0617 |  | 0.0715 | 0.0398 |  |  | 0.0785 |  | 0.0672 |  | 0.0609 | 0.0525 | 0.0515 |  | 
16 | L205K | 0.0589 | 0.0501 |  | 0.066 |  |  | 0.0589 |  |  |  |  |  | 0.069 |  |  |  |  |  | 0.0649

Row | Variant | area with substrate ENLYFAS | area with substrate ENLYFDS | area with substrate ENLYFES | area with substrate ENLYFHS | area with substrate ENLYFIS | area with substrate ENLYFKS | area with substrate ENLYFNS | area with substrate ENLYFPS | area with substrate ENLYFVS | area with substrate ENLYFYS | area with substrate ENLYFFS | area with substrate ENLYFLS | area with substrate ENLYFMS | area with substrate ENLYFCS | area with substrate ENLYFRS | area with substrate ENLYFTS | area with substrate ENLYFWS | area with substrate ENLYFSS | area with substrate ENLYFGS
17 | G202P | 0.0679 | 0.0587 | 0.0564 | 0.0611 | 0.0691 | 0.0646 | 0.0592 | 0.0421 | 0.0697 | 0.0673 | 0.0742 | 0.0686 | 0.0623 | 0.0512 | 0.0574 | 0.0617 | 0.0794 | 0.0589 | 
18 | G202D | 0.0588 |  |  | 0.0675 | 0.0554 |  | 0.0572 |  |  | 0.0501 | 0.07 | 0.0575 | 0.0565 |  | 0.0656 | 0.0504 | 0.058 |  | 0.065
19 | Q198M | 0.0592 |  | 0.0593 | 0.0498 | 0.0622 | 0.0525 |  | 0.062 | 0.0626 | 0.063 | 0.113 |  | 0.0661 | 0.064 | 0.0703 | 0.06 |  | 0.0602 | 
20 | A207G | 0.0663 |  |  |  | 0.0146 | 0.0693 |  |  | 0.0696 |  | 0.0771 |  | 0.0491 |  | 0.0586 |  |  |  | 
21 | F218M | 0.047 | 0.077 | 0.0609 | 0.0779 | 0.059 |  |  |  |  |  |  |  |  |  | 0.0466 |  |  |  | 0.0635
22 | F218W | 0.0701 |  | 0.0639 |  | 0.0571 | 0.079 |  | 0.0584 | 0.0585 |  |  |  |  |  | 0.0612 | 0.0426 |  |  | 0.0566
23 | V183Q | 0.0457 |  | 0.0558 | 0.052 | 0.0584 | 0.0583 | 0.0629 | 0.035 | 0.0541 | 0.0606 |  | 0.0558 | 0.0431 |  |  | 0.0408 |  |  | 0.0461
24 | L191E | 0.07 |  | 0.0592 |  | 0.0561 | 0.0527 | 0.0472 | 0.0627 | 0.0464 | 0.0502 | 0.0613 |  | 0.0659 | 0.0548 |  | 0.0518 |  |  | 
25 | Y179C | 0.0596 |  | 0.1 | 0.0445 | 0.064 |  | 0.0666 | 0.0614 | 0.0463 |  | 0.0712 | 0.0542 | 0.0526 |  | 0.0669 |  | 0.0546 |  | 
26 | N177D | 0.0584 | 0.0543 | 0.0679 | 0.0576 | 0.0685 |  | 0.0875 | 0.0661 | 0.0585 | 0.0559 | 0.0674 |  | 0.0697 |  | 0.0659 | 0.0578 | 0.0675 | 0.058 | 0.0736
27 | W203M | 0.0471 |  |  |  | 0.0557 |  | 0.0483 | 0.0308 |  | 0.0445 |  |  | 0.0563 |  |  |  | 0.0571 |  | 
28 | P228M | 0.0776 |  | 0.0602 |  | 0.0583 |  | 0.0588 | 0.0752 | 0.0648 |  | 0.0722 |  | 0.0727 | 0.0512 |  |  |  |  | 
29 | P228L | 0.0413 |  | 0.081 |  | 0.0701 | 0.0447 | 0.0488 | 0.053 | 0.0644 |  |  |  | 0.0522 | 0.0744 |  |  |  |  | 0.047
30 | P228G | 0.0598 |  | 0.0535 |  | 0.0625 |  | 0.0587 | 0.0606 |  | 0.0589 | 0.0618 |  | 0.0715 |  | 0.058 | 0.0377 |  |  | 0.054
31 | V229A | 0.0698 | 0.0569 | 0.0895 |  | 0.0455 |  | 0.0657 | 0.0496 | 0.0618 |  | 0.0609 |  | 0.0598 |  |  | 0.0643 |  |  | 
